Among all 310,000 compounds or so, about 18,000 (5.8%) were called active. The shares of active, inactive and inconclusive entries below differ from those in the screen. The call rests on the fitted dose curve; in most records, active means well fitted inhibition curve with a large enough effect; inconclusive means small, poorly fitted or top-dose-only effect, or another doubt; inactive means no such curve, though single readings can be large or run the other way. No potency is given beside an inconclusive call; the fits are too rough.
Assay: Primary qHTS for delayed death inhibitors of the malarial parasite plastid, 48 hour incubation
Settings: P. falciparum luciferase growth in erythrocytes; series mostly up to 28.7 µM
In short: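 A one-generation exposure of luciferase-tagged malaria parasites in RPMI 1640/Albumax erythrocyte culture, 37 C and 5% CO2. Inhibition is inferred from decreased luminescence after adding detection reagent.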
Potency means the concentration at half of the fitted maximal effect; tags describe the fitted curve by direction and shape.

Compound	Potency
CCCc1nnc(NC(=O)CCC(=O)NC2CCCCCC2)s1	inactive
O=C(NCC(c1ccco1)N1CCCC1)c1ccc(S(=O)(=O)Nc2ccccc2F)cc1 (stereo not given)	inconclusive [inhibitor, partial curve, poor fit]
CC(C)NC[C@H](O)COc1cccc2[nH]ccc12	inactive
Cc1ccc(/C=C(\C#N)C(=O)NCCN2CCOCC2)cc1	inconclusive [inhibitor, single point]
COc1ccc(CCNC(=S)Nc2ccccc2C)cc1	inconclusive [inhibitor, single point]
COc1ccc([C@H]2C(C#N)=C([S-])N[C@](C)(O)[C@@H]2[n+]2ccccc2)cc1	inconclusive [inhibitor, partial curve]
CCN(CC)c1ccc(/C=N/N2CCN(Cc3ccccc3)CC2)c(O)c1	inconclusive [inhibitor, partial curve]
O=C(C1CCC(=O)N1Cc1ccccc1Cl)N1CCN(c2ccc(F)cc2)CC1 (stereo not given)	inconclusive [inhibitor, single point]
Cc1ccccc1CN1CCC(N2CCC(C(=O)NCC3CCCO3)CC2)CC1 (stereo not given)	inactive
CC1CN(C(=O)COC(=O)c2ccc(C#N)cc2)CC(C)O1 (stereo not given)	inactive
Cc1ccc2c(c1)=C(c1sc(N(C)c3ccc(O)cc3)nc1O)C(=O)N=2	inconclusive [inhibitor, single point]
COc1ccccc1N1CCN(C(C)C(=O)N2CC(C)OC(C)C2)CC1 (stereo not given)	inactive
C#CCOCCOCCOCCNc1nc(N2CCN(C(=O)[C@H](CCCCN)n3cc(C(N)[C@H](C)CC)nn3)CC2)nc(N2CCN(C(=O)[C@H](CCC(=O)O)n3cc(C(N)[C@H](C)CC)nn3)CC2)n1 (stereo not given in full)	inconclusive [inhibitor, single point]
COC(=O)c1cn(NC(=O)c2ccc3c(c2)OCO3)c(=O)c2ccccc12	inconclusive [inhibitor, single point]
S=C1SCN(Cc2cccnc2)CN1Cc1ccccc1	inconclusive [inhibitor, partial curve, poor fit]
Cc1ccc(-c2nc(C#N)c(NCc3cccc4c3OCO4)o2)cc1	inactive
COc1ccc(N2CCN(C(=O)CNC(=O)Cn3c(C)cc4ccccc4c3=O)CC2)cc1	inconclusive [inhibitor, single point]
CCN(Cc1nc2cc(Cl)ccc2c(=O)[nH]1)C(=O)c1ccc(C)c(NC(=O)c2ccco2)c1	active: 9.28 µM
CCOc1ccc(C(=O)NCC(c2ccco2)N2CCc3ccccc3C2)cc1 (stereo not given)	inconclusive [inhibitor, single point]
C(=C/c1ccnc2nc(SC/C=C/c3ccccc3)nn12)/c1ccccc1	inconclusive [inhibitor, partial curve, poor fit]
CCCN(CC(=O)Nc1ccccc1OC)C(=O)c1cc2ccccc2o1	inactive
COc1cccc(C2SCC(=O)N2c2ccc(C)cc2)c1OC (stereo not given)	inconclusive [inhibitor, single point]

Compound	Potency
COc1ccccc1S(=O)(=O)Cc1ccc(C(=O)NC(C)c2ccc3c(c2)OCCO3)o1 (stereo not given)	inconclusive [inhibitor, single point]
O=C(COc1ccc(F)cc1)N1CCc2ccccc2C1	inactive
O=C1CC(C(F)(F)C(F)(F)C(F)(F)C(F)F)=Nc2ccccc2N1	inconclusive [inhibitor, single point]
O=C(CN1C(=O)NC2(CCCCC2)C1=O)Nc1cc(C(F)(F)F)ccc1N1CCOCC1	inconclusive [inhibitor, partial curve, poor fit]
COc1cccc(C(=O)C2CCCN(Cc3cn[nH]c3C3CCCCC3)C2)c1 (stereo not given)	inconclusive [inhibitor, single point]
CCCCSc1c(C)c2cc3c(cc2[nH]c1=O)OCO3	inactive
CCOC(=O)c1ccc(NC(=S)NN)cc1	inconclusive [inhibitor, partial curve, poor fit]
O=C(N/N=C/c1ccc(OC2CSC2)cc1)c1ccc(CN2CCOCC2)cc1	inconclusive [inhibitor, partial curve]
CCCn1nnc(NC(=O)COc2ccccc2Cl)n1	inactive
COc1ccc(Nc2nc(-c3cccc(OC)c3O)nc3ccccc23)cc1	active: 7.38 µM
COc1cccc(-c2csc(N3CCN(C(=S)Nc4cccc(Cl)c4)CC3)n2)c1	inconclusive [inhibitor, single point]
CC(C)Cc1nc(N2CCN(C(=O)c3ccco3)CC2)c(C#N)c2c1CCCC2	inconclusive [inhibitor, single point]
COc1cc2cc(CN(C(=O)NC3CCCCC3)C3CCCC3)c(=O)[nH]c2cc1OC	active: 11.7 µM
O=C(CNC(=S)N(Cc1ccccc1)Cc1cccnc1)NC1CCCCC1	inconclusive [inhibitor, partial curve, poor fit]
CCCn1c(NC(=O)CSCC(=O)Nc2cc(C)on2)nc2ccccc21	inconclusive [inhibitor, single point]
COc1ccc(C(CNC(=O)c2ccc(S(=O)(=O)N3CCCC3)cc2)N2CCOCC2)cc1 (stereo not given)	inconclusive [inhibitor, full curve, poor fit]
O=C(O)c1cccc(Nc2ccc3nonc3c2[N+](=O)[O-])c1	inactive
CCOC(=O)CSc1nc2c(sc3ccccc32)c(=O)n1CCCN1CCOCC1	inconclusive [inhibitor, single point]
COc1ccc(NC(=O)NC(C)c2ccc3c(c2)OCO3)cc1OC (stereo not given)	inactive
COc1cc2c(cc1OC)C(CSc1ccccc1C(=O)O)=NC(C)(C)C2	inconclusive [inhibitor, single point]
CC(=O)Nc1ccc(C(=O)OCC(=O)Nc2ccc(N3CCOCC3)cc2)cc1	inconclusive [inhibitor, partial curve, poor fit]
COc1ccc(NC(=O)N(C2CCCCC2)C(C)c2cccnc2)c(OC)c1 (stereo not given)	inconclusive [inhibitor, single point]

Compound	Potency
CC1CCc2nc(NC(=O)c3ccc(S(=O)(=O)N4CCCc5ccccc54)cc3)sc2C1 (stereo not given)	inconclusive [inhibitor, single point]
Cc1ccc(C(C(=O)NC2CCCC2)N(C(=O)Cc2cccs2)c2ccc3c(c2)OCCO3)cc1 (stereo not given)	active: 3.29 µM
Cc1cc(N2CCOCC2)nc(SCC(=O)c2ccc(Cl)cc2)n1	inconclusive [inhibitor, single point]
Cc1ccccc1C(=O)Nc1sc(C)c(C)c1C(=O)c1ccccc1	inconclusive [inhibitor, partial curve]
COCc1nc2ccccc2n1Cc1ccc(Br)cc1	inconclusive [inhibitor, single point]
O=C(Nc1cccc(Cl)c1)Nc1cc(S(=O)(=O)N2CCCCC2)ccc1Cl	inconclusive [inhibitor, single point]
COc1ccc(C2/C=C\CN(S(=O)(=O)c3ccc4ccccc4c3)CC(=O)N2Cc2ccc(F)cc2)cc1 (stereo not given)	active: 13.1 µM
Cc1ccc(OCCC(=O)OCC(=O)NC(=O)NCc2ccccc2)cc1	inconclusive [inhibitor, single point]
CCCCn1c(N)c(N(CC(C)C)C(=O)c2cccc(S(=O)(=O)N3CC(C)OC(C)C3)c2)c(=O)[nH]c1=O (stereo not given)	inconclusive [inhibitor, partial curve, poor fit]
COc1cccc(/C=N/Nc2ncc(C)c(=O)[nH]2)c1OC	inactive
Cc1[nH]c2ccccc2c1C(=O)CN1C(=O)NC2(CC(C)CC(C)(C)C2)C1=O (stereo not given)	inconclusive [inhibitor, single point]
CC(C)CN(CC(C)C)S(=O)(=O)N1CCC(C(=O)NCc2ccc3c(c2)OCO3)CC1	inconclusive [inhibitor, full curve]
Nc1nc(SCc2ccc(Cl)cc2)[nH]c(=O)c1-c1ccccc1	inconclusive [inhibitor, single point]
CCCc1ccc(S(=O)(=O)N2CCN(C(C)C(=O)NCc3ccc(OC)cc3)CC2)cc1 (stereo not given)	inconclusive [inhibitor, partial curve]
CCOC(=O)/C(=N\Nc1ccccc1)P(=O)(c1ccccc1)c1ccccc1	inconclusive [inhibitor, partial curve, poor fit]
CSc1nnc2c(n1)[nH]c1c(C)cccc12	active: 8.28 µM
COc1cc(NC(=O)c2cccnc2)ccc1NC(=O)c1ccccc1Cl	inactive
O=C(O)c1cccc(CN2C(=O)S/C(=C/c3cccc([N+](=O)[O-])c3)C2=O)c1	inconclusive [inhibitor, single point]
CCN(Cc1ccncc1)Cc1cn(C)nc1-c1ccc(Oc2ccccc2)cc1	inconclusive [inhibitor, partial curve]
CCOC(=O)c1c(NC(=O)COC(=O)c2ccccn2)sc(C(=O)N(C)C)c1C	inconclusive [inhibitor, partial curve, poor fit]
CN(C(=O)c1ccccc1C(=O)OCC(=O)Nc1ccc(S(N)(=O)=O)cc1)c1ccccc1	inconclusive [inhibitor, single point]
